PubChem BioAssay AID938 (National Center for Advancing Translational Sciences (NCATS), 2007)
Values joined by “and” are separate entries in the source; they are usually repeats but may differ in a detail not shown here. Equal values may be shown once. Out of some 73,000 compounds screened, about 1,800 (2.5%) were called active. This list was built around the results that the source calls inconclusive (neither active nor inactive); the mix of calls is not that of the screen. Calls follow the shape of the dose curve; as a rule, active = well fitted activation curve with a large enough effect; inconclusive = small, poorly fitted or top-dose-only effect; inactive = no such curve, though single readings can be large or run the other way. Potencies of inconclusive entries are left out as doubtful fits. Some structures have more than one record in an assay (separate samples or runs), and their calls can disagree.

Assay: qHTS Assay for Agonists of the Thyroid Stimulating Hormone Receptor: Activators of Intracellular cAMP Concentrations in Parental HEK 293; also: nearly all actives have a fitted effect of over 55% in size; as to activation: % of control where 0% means no effect
Conditions: parental HEK293 CNG cAMP sensor, membrane potential fluorescence; activation: at 57.1 µM (top of the series) unless noted
Summary of the method: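 Parental HEK 293 cells stably expressing a cAMP-gated CNG channel were loaded with membrane potential dye containing 100 uM RO 20-1724 for 60 min. Compound added for 30 min; depolarization read as fluorescence intensity at 590 nm.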
Potency is read from the fitted curve at half-maximal effect; tags tell the direction and shape of the fitted curve.

| Structure (SMILES) | activation | Potency |
| --- | --- | --- |
| O=C(Nc1ccc2nc(-c3ccco3)[nH]c2c1)c1cccs1 | inactive: 6.6% |  |
| Cc1ccc(/C(O)=C2\C(=O)C(=O)N(c3cc(C)on3)C2c2cccc(Br)c2)cc1 (stereo not drawn) |  | inconclusive [activator, partial curve] |
| CCCn1c(=O)c2ccccc2n2c(SCC(=O)c3cc(C)n(CCOC)c3C)nnc12 |  | inconclusive [activator, partial curve] |
| Cc1noc(C)c1C(=O)N1CCC2(CCCN(C(=O)Nc3ccccc3)C2)CC1 | inactive: 24.9% |  |
| Cc1c(C(=O)N2CCCCC2)oc2ccc(S(=O)(=O)N3CC(C)CC(C)C3)cc12 (stereo not drawn) |  | inconclusive [activator, partial curve] |
| Cc1ccc(Cl)cc1N | inactive: 7.58% |  |
| CCOC(=O)c1nnn(-c2nonc2-n2cccc2)c1CN1CCCCC1 |  | inconclusive [activator, partial curve] |
| Cc1[nH]c(C(=O)N2CCCCC2)c(C)c1C(=O)NC1CCCCC1 | inconclusive: 30.2% [activator] |  |
| CC(N)=NCCC[C@H](N)C(=O)O |  | inactive |
| Cn1ncc(Cl)c1C(=O)N1CCc2ccccc21 | inactive: 5.01% |  |
| CO[C@H]1COC(=O)[C@H](C)NC(=O)C/C=C\[C@@H](C)[C@@H](NS(=O)(=O)c2ccc(C)cc2)COC(=O)[C@H](OCc2ccccc2)/C=C\[C@@H]1C | inactive: -3.73% [at 11.4 µM] |  |
| CCc1cc2c(SCC(=O)c3cccs3)ncnc2s1 |  | inconclusive [activator, partial curve] |
| CN1c2ccccc2C(C)(C)C12C=Cc1cc(O)ccc1O2 (stereo not drawn) | inactive: 28.6% |  |
| Cc1noc(C)c1COC(=O)C1CC(O)CN1S(=O)(=O)c1ccc(Cl)cc1 (stereo not drawn) |  | inconclusive [activator, single point] |
| Cc1ccc(-n2c(SCC(=O)OC(C)C)nnc2-c2ccncc2)cc1 |  | inconclusive [activator, single point] |
| CSc1ccc(Cl)c(C(=O)NCC(C)C)c1 |  | inconclusive [activator, single point] |
| COc1ncc2ncc(=O)n(Cc3cccs3)c2n1 |  | inconclusive [activator, single point] |
| COc1ccc(CCC(C(O)C(F)(F)F)S(=O)c2ccccc2)cc1 (stereo not drawn) | inactive: 23.5% |  |
| CCn1c(=O)cc(SCC(=O)NCCN2CCN(Cc3ccccc3)CC2)c2ccccc21 |  | inconclusive [activator, partial curve] |
| COc1cccc(-c2nc(NC3CCNCC3)c3ccccc3n2)c1 | inactive: -33.1% |  |
| COC(=O)[C@@]1(Cc2ccc(OC)cc2)[C@H]2c3cc(C(=O)N(C)C)n(CCc4ccc(OC)c(Br)c4)c3C[C@H]2CN1C(=O)c1ccccc1 |  | inconclusive [activator, partial curve] |
| Cc1ccc(-c2nnc(-c3ccc4ccccc4c3)o2)cc1 |  | inconclusive [activator, single point] |
| CCCCN1c2ccccc2N(CCCO)c2cc(C)nnc21 | inactive: 8.25% |  |
| Cc1cc(=O)oc2cc(OCc3nnc(-c4ccccc4Br)o3)ccc12 |  | inconclusive [activator, partial curve] |

| Structure (SMILES) | activation | Potency |
| --- | --- | --- |
| O=C(Nc1ccc(Nc2ccc3c(c2)C(=O)c2ccccc2C3=O)c2c1C(=O)c1ccccc1C2=O)c1ccccc1 | inactive: 0.46% [at 11.4 µM] |  |
| CCN(CC)S(=O)(=O)c1cc(-c2nnc(-c3ccc(Br)cc3)o2)ccc1Cl |  | inconclusive [activator, partial curve] |
| Cc1sc2nc(CN(Cc3cccs3)C(=O)C3CC3)[nH]c(=O)c2c1C |  | inconclusive [activator, partial curve] |
| CNC(=O)[C@H]1O[C@H](n2cnc3c(NCc4cccc(I)c4)nc(Cl)nc32)[C@@H](O)[C@@H]1O | inactive: -18.4% |  |
| COC(=O)c1cn(NC(=O)C2COc3ccccc3O2)c(=O)c2ccccc12 (stereo not drawn) |  | inconclusive [activator, single point] |
| Cc1ccc(-c2nnc(SCC(=O)N3CC(C)CC(C)C3)o2)cc1C (stereo not drawn) |  | active: 15.8 µM |
| O=C(CSc1nc2c(c(=O)n1-c1ccc(Br)cc1)SCC2)NCc1ccco1 |  | inconclusive [activator, partial curve] |
| Cc1cc(C)nc(NS(=O)(=O)c2cccs2)c1 |  | inconclusive [activator, single point] |
| CC(C)(CNC(=O)c1cccs1)CNC(=O)c1cccs1 |  | active: 31.6 µM |
| Cc1cccc(OCCCC(=O)Nc2ccc3c(c2)OCO3)c1 |  | inconclusive [activator, single point] |
| Cc1onc(-c2ccccc2)c1C(=O)Nc1cccc2nsnc12 |  | inconclusive [activator, partial curve] |
| Cc1cc(C)c2nc(SCC(=O)N3CCCCC3)c(C#N)cc2c1 |  | inconclusive [activator, partial curve] |
| COC(=O)C1=C(C)NC(=O)CC1c1cc2c(cc1Br)OCO2 (stereo not drawn) |  | inconclusive [activator, partial curve] |
| CCCc1cc(=O)oc2c(C)c3occ(C)c3cc12 |  | inconclusive [activator, full curve] |
| O[Si@](CCCN1CCCCC1)(c1ccc(F)cc1)C1CCCCC1 |  | inconclusive [activator, full curve] |
| CCOC(=O)c1ccc(N2C(=O)c3n[nH]c(C)c3C2c2ccc(OC)c(OC)c2)cc1 (stereo not drawn) |  | inconclusive [activator, single point] |
| COc1ccc(-n2ccnc2SCC(=O)Nc2ccccc2)cc1 |  | active: 3.16 µM |
| Cc1cc(C)n(-c2nc(SCC(=O)NCC3CCCO3)c3c4c(sc3n2)CCCC4)n1 (stereo not drawn) |  | active: 25.1 µM |
| CCCCCNCCCCC |  | inconclusive [activator, partial curve, poor fit] |
| Cc1cc(-n2c(C)cc(C(=O)CSc3ccc4c(c3)OCCO4)c2C)no1 |  | inconclusive [activator, single point] |
| COC(=O)c1ccc(CSc2nc3ccccc3o2)cc1 | inactive: 18.7% |  |
| CCCn1cc(SCC(=O)Nc2nnc(C)s2)c2ccccc21 |  | inconclusive [activator, partial curve] |
| Cc1c(N=C/C=C/c2ccccc2)c(=O)n(-c2ccccc2)n1C | inactive: 6.4% |  |
| COc1ccc(OC)c2[nH]c(=O)c(CCNS(=O)(=O)c3ccccc3)cc12 | inactive: 19.6% |  |

| Structure (SMILES) | activation | Potency |
| --- | --- | --- |
| N#Cc1cc2c(nc1SCC(=O)NCc1ccc3c(c1)OCO3)CCCCC2 |  | inconclusive [activator, partial curve] |
| COC(=O)c1ccc(C(=O)OC)c(NC(=O)CN2CCN(c3ccccc3)CC2)c1 |  | inconclusive [activator, single point] |
| Cc1noc(C)c1CSc1nnc(-c2ccccc2F)n1CCc1ccccc1 |  | active: 10 µM |
| C=C(C)C(=O)OCC1CN2C(CCC(C)C2c2ccc(Br)cc2)C(=O)O1 (stereo not drawn) | inactive: 14.7% [at 11.4 µM] | active: 3.98 µM and active: 1.58 µM |
| c1ccc(Cn2nnnc2C(c2cccs2)N2CCc3ccccc3C2)cc1 (stereo not drawn) |  | active: 10 µM |
| O=C(Cn1ncc2c(=O)oc3ccccc3c21)NCCC1=CCCCC1 |  | inconclusive [activator, partial curve] |
| CSc1nc(N)nc(SCC(=O)c2ccccc2)c1C#N | inactive: -1.27% |  |
| CCOc1ccc(OCC)c(NC(=O)CSc2nc3c(c(=O)n(C)c(=O)n3C)n2CC)c1 | inactive: 11.6% |  |
| CCOC(=O)c1sc(N)c(C#N)c1CSc1nnc(C2CCCCC2)n1N |  | inconclusive [activator, partial curve] |
| O=C1CC(N2CCN(c3nc4ccccc4s3)CC2)C(=O)N1Cc1cccs1 (stereo not drawn) |  | inconclusive [activator, single point] |
| O=C(NCCNCCO)c1c(O)c2cccc3c2n(c1=O)CCC3 |  | inconclusive [activator, partial curve] |
| OCCCCNc1cccc2ccccc12 |  | inconclusive [activator, single point] |
| CCOc1ccccc1CN1C(=O)NC(C)(c2ccccc2)C1=O (stereo not drawn) | inactive: 23.4% |  |
| N#Cc1cccc(-c2nc3cnc(N4CCOCC4)nc3n(C3CC3)c2=O)c1 | inactive: 5.65% |  |
| CCS(=O)(=O)c1nc2ccccc2n1Cc1ccccc1Cl |  | inconclusive [activator, single point] |
| O=C(CSc1nnc(-c2ccccc2O)o1)N1CCc2ccccc2C1 |  | inconclusive [activator, single point] |
| Cc1cc(C)n(S(=O)(=O)c2cc(C)c(C)cc2C)n1 |  | inconclusive [activator, partial curve] |
| O=C(Nc1cn(-c2ccccc2)nc1-c1cccs1)c1ccco1 |  | active: 31.6 µM |
| CC1(C)CC(=O)C=C(Nc2ccccc2NC(=O)c2cnccn2)C1 |  | inconclusive [activator, partial curve] |
| CC[C@]1(c2ncc[nH]2)Cc2ccccc2O1 |  | inconclusive [activator, single point] |
| C=CCn1c(SCC(=O)NCc2ccco2)nc2sc3c(c2c1=O)CCCCC3 |  | inconclusive [activator, partial curve] |
| O=C(CSc1nnc(-c2ccco2)n1Cc1ccccc1)OC1CCCCC1 |  | active: 3.98 µM |
| CCC(C)n1cnc2c(c1=O)c1nc3ccccc3nc1n2-c1ccc2c(c1)OCCO2 (stereo not drawn) | inactive: 5.13% |  |
| Cc1ccc2ncccc2c1 | inconclusive: 50.4% [activator] |  |
